{
  "source": "PubChem BioAssay AID686970",
  "about": "(National Center for Advancing Translational Sciences (NCATS), 2013)",
  "note": "In all, about 360,000 compounds went through this assay and about 6,000 (1.7%) were called active. This list was built around the results that the source calls inconclusive (neither active nor inactive); the mix of calls is not that of the screen. Calls come from the whole dose curve; as a rule, active = well fitted cell-killing curve with a large enough effect; inconclusive = small, poorly fitted or top-dose-only effect, or effect the other way; inactive = flat fitted curve, though single readings scatter. No potency is given beside an inconclusive call; the fits are too rough. Potency is the fitted concentration of half-maximal effect; tags give direction and shape of the fitted curve.",
  "data": [
    {"assay": "qHTS for induction of synthetic lethality in tumor cells producing 2HG: qHTS for the HT-1080-NT fibrosarcoma cell line;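 note: NT is the 2HG producing partner of a matched IDH1 knockdown line; nearly all actives have a fitted effect of over 55% in size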;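 for activity, negative = less viability: 0% = DMSO-treated cells and -100% = media-only wells without cells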", "conditions": "HT-1080-NT fibrosarcoma viability, CellTiter-Glo ATP luminescence, 48 h; activity, negative = less viability: at 46.1 µM (top of the series) unless noted", "in_short": "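750 cells/well, RPMI + 5% FBS; 2 h settle, compound pin-transfer, 48 h at 37 degrees C. CellTiter-Glo 10 min RT, luminescence. Normalized to DMSO and media-only wells.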", "values": [
      {"molecule": "COc1cc(OC)cc(-c2c(-c3cccs3)c3cc(-c4cnc(OC)nc4)ccc3n2C)c1", "Potency": "inactive"},
      {"molecule": "CCOC(=O)C(C)On1c(-c2ccc(Cl)cc2)nc2ccc([N+](=O)[O-])cc21", "note": "(stereo not drawn)", "Potency": "inconclusive [cytotoxic, single point]"},
      {"molecule": "Cc1oc2c(c1C(=O)c1ccccc1)C(=O)C(=O)c1ccccc1-2", "Potency": "active: 18.4 µM"},
      {"molecule": "CS(=O)(=O)c1ccc(C(=O)OC2CCOC2=O)cc1[N+](=O)[O-]", "note": "(stereo not drawn)", "Potency": "inconclusive [cytotoxic, single point]"},
      {"molecule": "COc1ccccc1C/C(N)=N/OC(=O)c1cccc([N+](=O)[O-])c1C", "Potency": "inconclusive [cytotoxic, single point]"},
      {"molecule": "N#CC1=C(N)N2C(=C(C#N)C13CCN(Cc1ccccc1)CC3)Nc1ccccc12", "Potency": "inactive"},
      {"molecule": "CCn1nc2cc(C(=O)NCc3cc(C(F)(F)F)cc(C(F)(F)F)c3)ccc2c1OC", "Potency": "inconclusive [cytotoxic, single point]"},
      {"molecule": "COc1ccc(CCCNC(=O)C2Cc3c(-c4ccc(NC(C)=O)cc4)ccnc3O2)cc1", "note": "(stereo not drawn)", "Potency": "inconclusive [cytotoxic, partial curve, poor fit]"},
      {"molecule": "COc1ccc(-c2c(-c3ccccc3OC)sc3ccccc23)cc1", "Potency": "inactive"},
      {"molecule": "NS(=O)(=O)c1ccc(NC(=O)c2cc(-c3cc(Cl)ccc3O)n[nH]2)cc1", "Potency": "inconclusive [cytotoxic, single point]"},
      {"molecule": "CN1CCN(c2ccccc2NC(=O)C(Cc2ccccc2)n2cccc2)CC1", "note": "(stereo not drawn)", "Potency": "inactive"},
      {"molecule": "O=C1/C(=C/c2ccncc2)Oc2cc(OS(=O)(=O)c3ccccc3)ccc21", "Potency": "inconclusive [cytotoxic, single point]"},
      {"molecule": "CCNC(=O)C1(C)CCN(C(=O)c2ccccc2)C1", "note": "(stereo not drawn)", "Potency": "inconclusive [rising, single point]"},
      {"molecule": "COc1ccc(NC(=O)NCCCN2CCC(Cc3ccccc3)CC2)cc1", "Potency": "inconclusive [cytotoxic, single point]"},
      {"molecule": "Cc1ccc(OCC(=O)NCCCNC(=O)c2cnccn2)cc1C", "Potency": "inactive"},
      {"molecule": "CC(=O)N1CC=CC1(CC(C)C)C(=O)NCCN1CCOCC1", "note": "(stereo not drawn)", "Potency": "inconclusive [rising, single point]"},
      {"molecule": "CCOC(=O)[C@]12CCC=C1N(Cc1ccc3c(c1)OCO3)C(=O)[C@H](CC(=O)NCc1cccc3ccccc13)C2", "Potency": "inconclusive [cytotoxic, single point]"},
      {"molecule": "COc1ccc(-n2nc3c(c2NC(=O)CCl)CSC3)cc1", "Potency": "active: 20.6 µM"},
      {"molecule": "Cc1nn(-c2ccc(C(=O)O)cc2)c(C)c1Cl", "Potency": "inactive"},
      {"molecule": "COC(=O)c1[nH]c2cccc(Cl)c2c1NC(=O)CN(C)C1CCCCC1", "activity, negative = less viability": "inconclusive: -4.11%"},
      {"molecule": "COc1ccccc1CNc1nc(NCCOc2ccccc2Cl)c2sccc2n1", "Potency": "active: 23.1 µM"},
      {"molecule": "COc1cccc(-n2cc(C(=O)NC(C)C)c3ccccc3c2=O)c1", "Potency": "inactive"},
      {"molecule": "COc1ccc(CNS(=O)(=O)c2ccc(-n3cccn3)cc2)cc1", "Potency": "inactive"},
      {"molecule": "CCCCn1nnnc1C(c1cccc2ccccc12)N1CCN(C/C=C/c2ccccc2)CC1", "note": "(stereo not drawn)", "Potency": "inconclusive [cytotoxic, single point]"},
      {"molecule": "Cc1ccc(S(=O)(=O)NCCc2nnc3ccc(N4CCOCC4)nn23)cc1", "Potency": "inactive"},
      {"molecule": "Cc1[nH]n(C2=NCCS2)c(=O)c1N=Nc1cccc(C(F)(F)F)c1", "Potency": "inconclusive [cytotoxic, full curve]"},
      {"molecule": "CCOc1ccc(CN(C)CC(=O)Nc2ccc([N+](=O)[O-])cc2Cl)cc1", "Potency": "inactive"},
      {"molecule": "COc1ccc2cnn(-c3ccc(OC(F)(F)F)cc3)c(=O)c2c1OC", "Potency": "inconclusive [rising, single point]"},
      {"molecule": "CC1(C)CC(N2CCN(c3ccccc3)CC2)=CC(=[N+]2CCCC2)C1", "Potency": "active: 1.12 µM"},
      {"molecule": "C/C(=C\\C(=O)c1ccccc1)Nc1ccc(O)cc1", "Potency": "inactive"},
      {"molecule": "C=C1CCN([C@H](C(=O)NCc2ccc(OC)cc2)C(C)C)S(=O)(=O)c2ccccc21", "Potency": "inactive"},
      {"molecule": "O=C(NCc1ccccc1F)C1CCCN(C(=O)Nc2ccc(F)cc2)C1", "note": "(stereo not drawn)", "Potency": "inconclusive [cytotoxic, single point]"},
      {"molecule": "CC1(C(=O)NCc2ccc(F)c(F)c2)Cc2c(-c3ccccc3)ccnc2O1", "note": "(stereo not drawn)", "Potency": "inconclusive [cytotoxic, single point]"},
      {"molecule": "CC(C)CCOc1ccc(CO[C@@H]2[C@H]3OC(C)(C)O[C@H]3O[C@@H]2C(O)CO)cc1", "note": "(stereo partly drawn)", "Potency": "inactive"},
      {"molecule": "c1ccc2c(c1)CCN(c1ncnc3c1[nH]c1ccccc13)C2", "Potency": "inconclusive [cytotoxic, partial curve, poor fit]"},
      {"molecule": "CN1c2ccccc2N(C)C1(C)c1ccccc1", "Potency": "inconclusive [cytotoxic, single point]"},
      {"molecule": "COc1ccc(S(=O)(=O)N2c3ccccc3OCC2C)cc1", "note": "(stereo not drawn)", "Potency": "active: 0.651 µM"},
      {"molecule": "Cc1cc2nc(-c3ccc(F)cc3)c(Cc3ccccc3)n2c(C)c1Br", "Potency": "inconclusive [cytotoxic, single point]"},
      {"molecule": "O=C(NNC(=O)c1cc(-c2cccnc2)nc2ccccc12)Nc1ccc(Cl)cc1", "Potency": "inconclusive [cytotoxic, single point]"},
      {"molecule": "CCCOc1ccccc1C1NC(=O)NC(C)=C1C(=O)OCCOC(C)C", "note": "(stereo not drawn)", "Potency": "inactive"},
      {"molecule": "C[C@H](CO)N1C[C@H](C)[C@@H](CN(C)C(=O)c2ccc(N3CCN(C)CC3)cc2)OCc2cnnn2CCCC1=O", "Potency": "inactive"},
      {"molecule": "Cc1cc(C)n(-c2ccc(C(=O)Nc3sccc3C(N)=O)cc2)n1", "Potency": "inactive"},
      {"molecule": "CC1CCN(CCCNC(=O)c2ccc3c(Cl)c4c(nc3c2)CCCC4)CC1", "Potency": "inconclusive [cytotoxic, partial curve]"},
      {"molecule": "CC(C)CC(=O)NC(NC(=S)Nc1cccc2cccnc12)C(Cl)(Cl)Cl", "note": "(stereo not drawn)", "activity, negative = less viability": "inconclusive: -30.3% [cytotoxic]"},
      {"molecule": "COc1ccccc1NC(=O)N(Cc1ccco1)Cc1cc2ccc(C)c(C)c2[nH]c1=O", "Potency": "active: 3.66 µM"},
      {"molecule": "CCOc1ccc(NC(=O)Cc2ccc(S(=O)(=O)N3CCCCC3)cc2)cc1OCC", "Potency": "inactive"},
      {"molecule": "Oc1ccc(-c2cnc(-c3ccc(O)cc3)nc2)cc1", "Potency": "inconclusive [cytotoxic, full curve]"},
      {"molecule": "COC(=O)C1=C(CCc2ccccc2)NC(=O)NC1c1ccc(Cl)cc1", "note": "(stereo not drawn)", "Potency": "inconclusive [cytotoxic, single point]"},
      {"molecule": "c1cc2c(cc1Cn1cnnn1)OCO2", "Potency": "inactive"},
      {"molecule": "COc1ccc(N2CCN(CCNC(=O)Nc3ccc(Cl)cc3)CC2)cc1", "activity, negative = less viability": "inactive: -0.186% [at 9.24 µM]"},
      {"molecule": "NC(=O)CC(NC(=O)c1ccccc1)c1ccc(NCCc2ccc(Cl)cc2)c([N+](=O)[O-])c1", "note": "(stereo not drawn)", "Potency": "inconclusive [cytotoxic, single point]"},
      {"molecule": "Cc1ccc(Nc2nc(N3CCOCC3)nc(N3CCOCC3)n2)cc1", "Potency": "inactive"},
      {"molecule": "Cc1ccc(NC(=S)N/N=C/c2ccc([N+](=O)[O-])s2)cc1", "Potency": "inconclusive [cytotoxic, single point]"},
      {"molecule": "O=C(CN1C(=O)c2ccccc2S1(=O)=O)c1ccccc1F", "Potency": "inactive"},
      {"molecule": "O=C(CN(C1CC1)S(=O)(=O)c1ccc(S(=O)(=O)N2CCCCCC2)cc1)Nc1ccccc1", "Potency": "inconclusive [cytotoxic, single point]"},
      {"molecule": "FC(F)(F)c1cc(-c2ccc(Cl)cc2)nc(NCc2cccnc2)n1", "Potency": "inactive"},
      {"molecule": "Oc1ccc(-c2c(C3=CCCCC3)sc3ccccc23)cc1", "Potency": "inactive"},
      {"molecule": "CCN(Cc1nc2cc(Cl)ccc2c(=O)[nH]1)C(=O)c1cccc(NC(=O)c2cccs2)c1", "Potency": "inconclusive [cytotoxic, single point]"},
      {"molecule": "COc1cc(NC(=O)Nc2cccc(C(C)=O)c2)cc(OC)c1OC", "Potency": "inconclusive [rising, single point]"},
      {"molecule": "c1cc2c(cc1C1CCCCC1)c1c3n2CCN=C3CCC1", "Potency": "active: 20.6 µM"},
      {"molecule": "CC1(C(=O)Nc2cccc(Oc3ccccc3)c2)CCN1Cc1ccccc1Cl", "note": "(stereo not drawn)", "Potency": "inconclusive [cytotoxic, single point]"},
      {"molecule": "COc1ccc(-c2sc3ccccc3c2/C=C/c2ccncc2)cc1", "Potency": "inconclusive [cytotoxic, single point]"},
      {"molecule": "COc1ccccc1NC(=O)CNC(=O)CC12CC3CC(CC(C3)C1)C2", "Potency": "inconclusive [cytotoxic, partial curve, poor fit]"},
      {"molecule": "Cc1cc(NC(=O)COC(=O)c2ccc(S(=O)(=O)N3CCCc4ccccc43)cc2)no1", "Potency": "active: 4.11 µM"},
      {"molecule": "CCOC(=O)c1c(NC(=O)Cc2cccs2)sc(C(=O)NC2CCCC2)c1C", "Potency": "inconclusive [cytotoxic, partial curve]"},
      {"molecule": "Cc1ccc(S(=O)(=O)NC(C)(C)CSc2nnc(Nc3ccccc3)s2)cc1", "Potency": "inactive"},
      {"molecule": "Cc1ccc(-c2noc(CCC(=O)NCCCN3CCN(c4ccc(F)cc4)CC3)n2)cc1", "Potency": "active: 23.1 µM"},
      {"molecule": "CCN(CC)c1ccc(-c2n[nH]c(=S)n2-c2ccccc2)cc1", "Potency": "inconclusive [cytotoxic, single point]"},
      {"molecule": "O=C(c1cc2cc(Br)ccc2s1)N1CCOCC1", "Potency": "inactive"},
      {"molecule": "CCOCCCNC(=S)N1CCCN(c2nc3cc(C)ccc3cc2C#N)CC1", "Potency": "inconclusive [rising, single point]"},
      {"molecule": "O=C(Cc1ccc(S(=O)(=O)N2CCOCC2)s1)Nc1ccc(Br)c(C(F)(F)F)c1", "Potency": "inconclusive [cytotoxic, single point]"},
      {"molecule": "O=C(N/N=C\\c1cc(Cl)ccc1O)c1ccc(S(=O)(=O)N2CCCCC2)cc1", "Potency": "active: 7.31 µM"},
      {"molecule": "CCN(CC(=O)Nc1ccc(NC(C)=O)cc1)C(=O)c1cc(-c2ccccc2Cl)nc2ccccc12", "activity, negative = less viability": "inconclusive: -30.8% [cytotoxic]"}
    ]}
  ]
}
